Measured values from PMC5173251.
No constants are given. Whether binding was seen depends on the method and setting. In cells and extracts the contact can be indirect. Some results given as binding are weak or reduced against the parent protein; the word gives no strength. Sequences can lack the tags named with a protein.

T1: GST-134-264 (D. discoideum) (UniProt Q7KWK5)
T1 sequence: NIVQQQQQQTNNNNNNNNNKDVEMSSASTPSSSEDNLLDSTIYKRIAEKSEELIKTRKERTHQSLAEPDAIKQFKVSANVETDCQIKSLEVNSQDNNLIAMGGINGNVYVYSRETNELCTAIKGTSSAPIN


Assays:
Test in all cases: pull-down; GST-Prp19 fusion proteins on Glutathione-Sepharose 4B beads, incubated 2 h with extracts of AX2 cells expressing GFP fusions (50 mM Tris-HCl pH 7.4, 100 mM NaCl, 1% NP 40, 0.1% SDS, 0.5% sodium deoxycholate); washed with 50 mM Tris-HCl pH 7.4, 100 mM NaCl; blot with GFP mAb K3-184-2; only the target purified
[1] = biological target: T1, GST-134-264 (D. discoideum)
[2] = biological target: GST-Prp19 (full length) (D. discoideum) (UniProt Q7KWK5)
[3] = biological target: GST-Prp19-like (aa 64-133) (D. discoideum) (UniProt Q7KWK5)

| binding [1] | binding [2] | binding [3] | Binder |
| --- | --- | --- | --- |
| binds | binds | binds | GFP-DdNKAP (full length DdNKAP, aa 1-510) (protein, UniProt Q55ED4 1-510) MSHRERDRDRDRDSDRDRDRNRYSRSRSRGSRSRSRSRSRSRDRNRNRDYNKDRSSNRDSYYNDRDYKKDRSSNRDRDYYDRDRNRDYKNSSSGSSSGGGGGGSGENYTVKSSSYRESNSNNSKVEIQKQENISKDYFIDNKGVNNSIERKDNIKNENNNNNSFDNRKAEFNNNSYGEKKEFDNNNNRNYHGGNSRYVNNNNNNNNNNYNNNNNKSNYNGTDFFEYRKKLREEATCFSVYERSPSPPKKGELEEIDDQFLSNKKKSKKSRRKSSSNSDSSSSDSDSDSSRSREKRKKSKSRKDKKKRKEKKKHQRKSSKRSSKYSDSDSDSDSSFSDSDYSDSDRSDSEGRSRKKRSKKRSKKRHDHHKESVHDASMWEEKVEQQTQTLSNRDIGPKPISEVQVGSYGGAMMPGEAEAIAQFVKENKRIPRRGEVGLTSEQIASFEETGYVMSGSRHRRMNAVRIRKESQVYSAEEQKALAMLNREEKAKRENRLLADFRDLINTKLQAD |
| binds | binds | binds | GFP-DdBasic (aa 221-400) (domain or fragment, UniProt Q55ED4 221-400) TDFFEYRKKLREEATCFSVYERSPSPPKKGELEEIDDQFLSNKKKSKKSRRKSSSNSDSSSSDSDSDSSRSREKRKKSKSRKDKKKRKEKKKHQRKSSKRSSKYSDSDSDSDSSFSDSDYSDSDRSDSEGRSRKKRSKKRSKKRHDHHKESVHDASMWEEKVEQQTQTLSNRDIGPKPIS |
| no binding | – | no binding | GFP-DdRS (aa 1-220) (domain or fragment, UniProt Q55ED4 1-220) MSHRERDRDRDRDSDRDRDRNRYSRSRSRGSRSRSRSRSRSRDRNRNRDYNKDRSSNRDSYYNDRDYKKDRSSNRDRDYYDRDRNRDYKNSSSGSSSGGGGGGSGENYTVKSSSYRESNSNNSKVEIQKQENISKDYFIDNKGVNNSIERKDNIKNENNNNNSFDNRKAEFNNNSYGEKKEFDNNNNRNYHGGNSRYVNNNNNNNNNNYNNNNNKSNYNG |
| no binding | no binding | no binding | GFP-DdDUF926 (aa 401-510) (domain or fragment, UniProt Q55ED4 401-510) EVQVGSYGGAMMPGEAEAIAQFVKENKRIPRRGEVGLTSEQIASFEETGYVMSGSRHRRMNAVRIRKESQVYSAEEQKALAMLNREEKAKRENRLLADFRDLINTKLQAD |
